The results in this text go back to paper PMC12136788.

The list shows a part of the results.

The labels stand for the following.
T1: UNK ZnF1-6 (called full-length) (human, UniProt Q9C0B0 30-357)
T1 sequence: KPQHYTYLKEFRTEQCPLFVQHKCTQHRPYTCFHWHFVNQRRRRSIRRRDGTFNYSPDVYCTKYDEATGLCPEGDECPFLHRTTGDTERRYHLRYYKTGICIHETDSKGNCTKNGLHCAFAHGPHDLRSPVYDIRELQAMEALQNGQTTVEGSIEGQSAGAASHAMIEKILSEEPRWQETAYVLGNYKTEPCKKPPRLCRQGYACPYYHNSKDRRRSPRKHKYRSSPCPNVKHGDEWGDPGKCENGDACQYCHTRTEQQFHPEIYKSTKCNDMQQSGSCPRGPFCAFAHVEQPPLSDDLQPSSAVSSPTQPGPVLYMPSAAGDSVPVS

B1: ENSG00000135299:stop:overlap|stop_codon|ENSG00000135299|stop_codon|NA|stop_codon (ssRNA)
RNA: GGGAGUUCUACAGUCCGACGAUCACAUUAAAAGUUUAGAAGAGGAACUUGCCAAACUAAGGACUAGGGUGCAGAAGGAAAAUUAGCACCAAUAAAGAGGAAAUAUGAAAGGAUUCUUGAAGAUUUCCAGUUUUGCAACUGCAUCAACAGAGGAUUGAGCAUCA
B2: chr1:153948111:153948329:-|CDS|ENSG00000160741|control|control|control (ssRNA)
RNA: GGGAGUUCUACAGUCCGACGAUCCCUGGCCGGAGUGCCUGGCUUUGAGGUGUCAGCAGCUGGAUUGGAGCUAGGGCUUGGGCUAGAAGAUGAGCUGCGCAUGGAGCCACUGGGCCUGGAAGGGCUAAACAUGCUGAGUGACCCCAACAGAGGAUUGAGCAUCA
B3: chr5:40972473:40972581:+|CDS|ENSG00000112936|unk|total|mutant (ssRNA)
RNA: GGGAGUUCUACAGUCCGACGAUCAAAACCUUUCUACACAGUUGGUGAGAAGGUGACUGUUUCCUGUUCAGGUGGCAUGUCCUCCGAAGGUCCUUCAGCAUUUCUCUGUGGCUCCAGCCUUAAGUGGAGUCCUGAGAUGAAGAACAACAGAGGAUUGAGCAUCA
B4: chr6:105100707:105100870:-|3pUTR|ENSG00000112276|msi1|FALSE|unique (ssRNA)
RNA: GGGAGUUCUACAGUCCGACGAUCUGAGAUAUAUAUUUUCACAGUCUUUUCUAGAUAUAUUAUUGUUUUAACUUAACAAAUCUUAGCAAUCUCUCAAUGCCUUUUCACUUAUUUUUUUCCAAGUUAUGAUUCUUUUUCCUCACACAACAGAGGAUUGAGCAUCA
B5: chr11:58422334:58423261:-|CDS|ENSG00000172365|control|control|control (ssRNA)
RNA: GGGAGUUCUACAGUCCGACGAUCACACACUAGUGAGGUGAUUCUGGUUUUUAUGUCAAGCUUUAAUAUCUUUUUUGUUCUUCUAGUUAUCUUUAUCUCCUACUUGUUCAUAUUCAUCACCAUCUUGAAGAUGCAUUCAGCUAACAACAGAGGAUUGAGCAUCA
B6: chr2:27041412:27041530:+|3pUTR|ENSG00000119777|msi1_unk|FALSE|overlapping (ssRNA)
RNA: GGGAGUUCUACAGUCCGACGAUCACUUCAAAAUGCCCAGCCUGCCCCAAAUGCCUCUAAGCCCCUCCCUGUCCCCUCCCUUGUAGUCCUACUUCUUCCAACUUUCCAUUCCCCAUCAUGCUGGGGGUCUUGGUCACAAGGCUCCAACAGAGGAUUGAGCAUCA
B7: ENSG00000117906:stop:overlap|stop_codon|ENSG00000117906|stop_codon|NA|stop_codon (ssRNA)
RNA: GGGAGUUCUACAGUCCGACGAUCAGUCCUUUAGGAAGCAUCAAUGUGGAGGUUUGGGGCUCCAUCCUCAGAGCCAGUCUGCUUAGCUUCACAUUUAGCUCCAGCACUUCACGGUUGUGUAACUUUGGCUUCACUUAAAGGACACAACAGAGGAUUGAGCAUCA
B8: chr6:89794666:89794767:-|CDS|ENSG00000112159|unk|total|mutant (ssRNA)
RNA: GGGAGUUCUACAGUCCGACGAUCCCAGUCUUUCAAAGACUUUUCCCCGAGAGUUCAGAUGCUAAUCCAGUACGCUAUGGACGCCGGAGGAUGAAGCUCCGGGACCUAAUGGAAGCAGCCUUCAAGUUUCUGCAGCAGGAGCAGCAACAGAGGAUUGAGCAUCA
B9: chr1:184691659:184691688:-|3pUTR|ENSG00000116406|msi1_unk|FALSE|overlapping (ssRNA)
RNA: GGGAGUUCUACAGUCCGACGAUCCUCCAACGUUGUAAUUACAACUCUACAUUCAUUUACUUACUUGACAUACUGCCACAAAGUAGUUUUUGAGUUCAUUAAAAAUUCCAAAGGCAUUAGUUGUUUUUUUUUUUUUUAGUGUUUCAACAGAGGAUUGAGCAUCA
B10: ENSG00000114439:stop:overlap|stop_codon|ENSG00000114439|stop_codon|NA|stop_codon (ssRNA)
RNA: GGGAGUUCUACAGUCCGACGAUCUUCAUUGUAAAACAUUGUGCUUUACCUACUACCCUAGCCUUGUCUUUACCGAGGGAUGCUAGUGAGUCCAAGUGGUGGAAAAUAUAGACUGCAAACAAGUGCUUGUUGCCCCACACGGCCCAACAGAGGAUUGAGCAUCA
B11: chr7:82949737:82949846:-|CDS|ENSG00000186472|unk|total|mutant (ssRNA)
RNA: GGGAGUUCUACAGUCCGACGAUCAAGUCCUCAAUAUCUGAGUGCCACAUCUCCACCCAAAGACAAGAAACGCCCAACACCUUCCGAGAUUGGUUAUUCAUCUCACCUCCGGGCAGAUUCCACAGUACAGCUGGCUCCUUCCCCCAACAGAGGAUUGAGCAUCA
B12: chr22:19969400:19969501:+|3pUTR|ENSG00000093010|msi1|FALSE|unique (ssRNA)
RNA: GGGAGUUCUACAGUCCGACGAUCUCCCCACUGGGCCUUGCUUACAGAAGAGGCAAUGGCUCAGACCAGCUCCCGCAUCCCUGUAGUUGCCUCCCUGGCCCAUGAGUGAGGAUGCAGUGCUGGUUUCUGCCCACCUACACCUAGCAACAGAGGAUUGAGCAUCA
B13: chr3:167478683:167478996:-|three_prime_utr|ENSG00000174776|control|control|control (ssRNA)
RNA: GGGAGUUCUACAGUCCGACGAUCCUGCCUUUUAUUUUAUUUUAUAUUUAAACUUCAGGAAGUUUUCUCUUCAUGGGAUAAUUUAGUACUGCUUUUAUCUAUCAUCUGUCAAUUUCUCUGUAUUCUUAAUAAAAUAAAUAUUGACAACAGAGGAUUGAGCAUCA
B14: chr15:34852525:34852627:-|3pUTR|ENSG00000021776|unk|FALSE|unique (ssRNA)
RNA: GGGAGUUCUACAGUCCGACGAUCCUAGCAUUUCCCAAACUUAUUAGAGCAUAAAACUUUGUUUUUGUUUUUUUUUAAUAAGAUAGGUAGCUAUUUCCUUAGAACACAGUUUGGGAAACUUUUUGUUCAUUUGUUUUAAUAAGACAACAGAGGAUUGAGCAUCA
B15: chr1:9729969:9730061:-|3pUTR|ENSG00000171603|msi1_unk|total|mutant (ssRNA)
RNA: GGGAGUUCUACAGUCCGACGAUCGUUUUUAUUUUUUCCAAACCCGUGCAUGUAUAAAUAAUGGCAGGAUGGGGGGUACUGUGCCGAUGAUUAACUGACUUUUUAAUAUUUUGUAAAUAAAUCGGAUUCCUUGUGUCCUUUGUGCAACAGAGGAUUGAGCAUCA
B16: chr10:72012227:72012328:+|3pUTR|ENSG00000122863|msi1|total|mutant (ssRNA)
RNA: GGGAGUUCUACAGUCCGACGAUCCAAUGGAAGGAGCUUCAGCAGGAGGUCCUUCCCAGAAGGUUGAUUCUUGGCCUGGGUGGCCGAGGAGAUAUCCUGACCCUAAAGUCUUCCAGCCCCGGGUCAUCCUCUCCUAUACCCGGGCAACAGAGGAUUGAGCAUCA
B17: chr14:44928120:44928223:-|3pUTR|ENSG00000179454|unk|total|mutant (ssRNA)
RNA: GGGAGUUCUACAGUCCGACGAUCCCGUACAGCAGGCCUCCCAGUGCUGAUGUAAAUAUUUGAGCAGUGUUCCGUACCAUUCUCCGUGCAUAUUAAUUUUUUUAUAUAUCCUUAUAAUUUCCGUUUUUUAAGAUCUUUGCUUUUCAACAGAGGAUUGAGCAUCA
B18: chr13:51761002:51761103:+|3pUTR|ENSG00000139668|unk|FALSE|unique (ssRNA)
RNA: GGGAGUUCUACAGUCCGACGAUCACGGCAAGAUUGUAAUCCUGCUGUAUUCCUCGCCCUCUGUAUUCUAUCCCUUUAAAAACUAGAUAUUUAAACAUUUUAUCCUAAUGUGUUUCAUCAGAACACUUUGCACACUUUCUUACUCAACAGAGGAUUGAGCAUCA
B19: chr12:39618871:39619093:-|CDS|ENSG00000173208|unk|total|mutant (ssRNA)
RNA: GGGAGUUCUACAGUCCGACGAUCUAUUAUGAUGUUCUCCCAAUCUGUGGCUCACUUGUAUUCCAAUCUGACCAAACCUAUUUCCGAUGUAAUGCUGACCUCCUAUACACUCAUUCAAACUGCUACAUCCAGAGGAGCAAGCCCCAACAGAGGAUUGAGCAUCA
B20: ENSG00000107863:be:win_4251|CDS|ENSG00000107863|bound_else_gene|NA|bound_elsewhere_windowed (ssRNA)
RNA: GGGAGUUCUACAGUCCGACGAUCUAGUCGCAAGAGGAAGAAGCCGAAAGAAAAAGCACAGCCUAGCAGCUCAGAAGAUGAACUGGACAAUGUAUUUUUUAAGAAAGAAAAUGUGGAACAGUGUCACAAUGAUACUAAAGAGGACAACAGAGGAUUGAGCAUCA
B21: chr11:118396625:118396726:+|3pUTR|ENSG00000110344|msi1|FALSE|bound_elsewhere (ssRNA)
RNA: GGGAGUUCUACAGUCCGACGAUCAACUUGACAAUGCUCCCCUGGCUUGCAGGAAAUUAUACUUAUUAUAGCAUCACCAAGUUUAGAAAUCAUCACUAAUUUUCACCCUCUGUUGUCUCUUCAUAUUCUUCUUCCUUUUCCUAACAACAGAGGAUUGAGCAUCA
B22: chr1:228098371:228098472:+|3pUTR|ENSG00000143761|msi1_unk|FALSE|overlapping (ssRNA)
RNA: GGGAGUUCUACAGUCCGACGAUCUGUGUUGAAAUCCAUUUUGGUGGUUGGUUUUUAACCCAAACUCAGUGCAUUUUUUAAAAUAGUUAAGAAUCCAAGUCGAGAACACUUGAACACACAGAAGGGAGACCCCGCCUAGCAUAGCAACAGAGGAUUGAGCAUCA

The target in this assay is T1, UNK ZnF1-6 (called full-length). In words: nsRBNS (natural sequence RNA bind-n-seq); RBNS binding buffer (assumed for nsRBNS): 25 mM Tris pH 7.5, 150 mM KCl, 3 mM MgCl2, 0.01% Triton X-100, 500 ug/ml BSA, 20 U/ml SUPERase-In, 4 C; UNK is unkempt and MSI1 is Musashi-1; names of the RNAs are library labels; protein concentration not given here; high values mean tight binding.
Molecule B1 registered a binding signal of 0.451 enrichment R.

As to B2, the binding signal is 0.883 enrichment R.

Molecule B3 showed a binding signal of 0.449 enrichment R. For B4, the binding signal amounted to 18.7 enrichment R. B5 had a binding signal of 12.5 enrichment R. In the case of B6, the binding signal came out at 1.6 enrichment R. B7 had a binding signal of 0.657 enrichment R. As for B8, the binding signal stood at 0.591 enrichment R. Under B9 stands 8.44 enrichment R. Under B10 stands 0.604 enrichment R. As for B11, the binding signal worked out at 0.726 enrichment R. In turn, B12 returned a binding signal of 0.592 enrichment R.

B13 gave a binding signal of 2.14 enrichment R.

As for B14, the binding signal worked out at 10.1 enrichment R. Molecule B15 showed a binding signal of 1.54 enrichment R. Regarding B16, the binding signal was 0.492 enrichment R. As for B17, the binding signal is 7.31 enrichment R. For the molecule B18, the binding signal is 28.5 enrichment R. On to B19, for which the binding signal turned out to be 0.656 enrichment R. As for B20, the binding signal worked out at 0.735 enrichment R. In the case of B21 it was 4.24 enrichment R; in that of B22, 0.954 enrichment R.
